For experiment [1], the target named is folliculin complex (FLCN, FNIP2) (human (cDNA from HEK293T cells)) (UniProt Q8NFG4+Q9P278). Briefly: co-IP; folliculin complex (FLCN, FNIP2) with Rag dimers harbouring nucleotide-state mutations or RagB^long mutants; lysis in 40 mM HEPES pH 7.4, 5 mM MgCl2, 1% Triton X-100; washes with 500 mM NaCl.
Experiment [2] addresses GATOR1 complex (DEPDC5, Nprl2, Nprl3) (UniProt O75140). Briefly: co-IP; whole GATOR1 complex with RagA/B isoforms and their mutants, taken to reflect mainly the inhibitory (DEPDC5) interface; lysis in 40 mM HEPES pH 7.4, 5 mM MgCl2, 1% Triton X-100; washes with 500 mM NaCl.
In experiment [3] the target is RagD (human) (UniProt Q9NQL2). Kind of experiment: co-IP; HA-tagged RagA, RagB^short or RagB^long with myc-tagged RagC and RagD; lysis in 40 mM HEPES pH 7.4, 5 mM MgCl2, 1% Triton X-100; washes with 500 mM NaCl.
The target in experiment [4] is RagC (human) (UniProt Q9HB90). The description is as above.
Experiment [5] has as its target T1, Nprl2/3 dimer (UniProt Q8WTW4).
T1 sequence 1: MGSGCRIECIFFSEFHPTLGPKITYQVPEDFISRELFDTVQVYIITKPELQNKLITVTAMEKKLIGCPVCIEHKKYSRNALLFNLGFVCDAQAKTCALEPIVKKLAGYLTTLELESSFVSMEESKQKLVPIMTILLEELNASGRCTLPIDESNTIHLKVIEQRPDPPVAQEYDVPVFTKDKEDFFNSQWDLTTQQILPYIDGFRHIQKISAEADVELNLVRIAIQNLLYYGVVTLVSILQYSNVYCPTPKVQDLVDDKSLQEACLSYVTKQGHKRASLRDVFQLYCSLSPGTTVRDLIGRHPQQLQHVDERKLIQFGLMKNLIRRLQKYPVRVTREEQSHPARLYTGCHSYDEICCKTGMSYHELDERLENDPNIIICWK
T1 sequence 2: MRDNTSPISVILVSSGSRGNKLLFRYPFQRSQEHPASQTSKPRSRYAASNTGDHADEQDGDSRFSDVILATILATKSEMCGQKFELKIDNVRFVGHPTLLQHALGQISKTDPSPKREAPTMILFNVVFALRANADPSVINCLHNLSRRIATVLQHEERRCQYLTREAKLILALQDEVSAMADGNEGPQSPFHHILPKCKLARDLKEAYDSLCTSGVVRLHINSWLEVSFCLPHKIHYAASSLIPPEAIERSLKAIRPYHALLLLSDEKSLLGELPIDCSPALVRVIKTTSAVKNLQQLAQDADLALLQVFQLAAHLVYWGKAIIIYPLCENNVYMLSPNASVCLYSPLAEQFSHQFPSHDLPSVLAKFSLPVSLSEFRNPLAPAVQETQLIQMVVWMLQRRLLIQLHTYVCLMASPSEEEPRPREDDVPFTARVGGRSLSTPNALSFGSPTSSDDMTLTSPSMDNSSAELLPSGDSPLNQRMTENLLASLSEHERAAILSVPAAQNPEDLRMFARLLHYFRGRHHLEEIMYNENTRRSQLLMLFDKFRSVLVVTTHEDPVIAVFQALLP
Briefly: co-IP; Nprl2/3 dimer with Rag GTPases in DEPDC5KO cells, to assess the GAP interface only; lysis in 40 mM HEPES pH 7.4, 5 mM MgCl2, 1% Triton X-100; washes with 500 mM NaCl.

Protein sequences, listed by entry. Tags and fused reporters are not part of them. Lines headed by an entry give the natural chain unless they say otherwise; changes in a name come on top. Chains listed by the source or under a name are the forms on record and can include a tag or linker.
UniProt Q9P278: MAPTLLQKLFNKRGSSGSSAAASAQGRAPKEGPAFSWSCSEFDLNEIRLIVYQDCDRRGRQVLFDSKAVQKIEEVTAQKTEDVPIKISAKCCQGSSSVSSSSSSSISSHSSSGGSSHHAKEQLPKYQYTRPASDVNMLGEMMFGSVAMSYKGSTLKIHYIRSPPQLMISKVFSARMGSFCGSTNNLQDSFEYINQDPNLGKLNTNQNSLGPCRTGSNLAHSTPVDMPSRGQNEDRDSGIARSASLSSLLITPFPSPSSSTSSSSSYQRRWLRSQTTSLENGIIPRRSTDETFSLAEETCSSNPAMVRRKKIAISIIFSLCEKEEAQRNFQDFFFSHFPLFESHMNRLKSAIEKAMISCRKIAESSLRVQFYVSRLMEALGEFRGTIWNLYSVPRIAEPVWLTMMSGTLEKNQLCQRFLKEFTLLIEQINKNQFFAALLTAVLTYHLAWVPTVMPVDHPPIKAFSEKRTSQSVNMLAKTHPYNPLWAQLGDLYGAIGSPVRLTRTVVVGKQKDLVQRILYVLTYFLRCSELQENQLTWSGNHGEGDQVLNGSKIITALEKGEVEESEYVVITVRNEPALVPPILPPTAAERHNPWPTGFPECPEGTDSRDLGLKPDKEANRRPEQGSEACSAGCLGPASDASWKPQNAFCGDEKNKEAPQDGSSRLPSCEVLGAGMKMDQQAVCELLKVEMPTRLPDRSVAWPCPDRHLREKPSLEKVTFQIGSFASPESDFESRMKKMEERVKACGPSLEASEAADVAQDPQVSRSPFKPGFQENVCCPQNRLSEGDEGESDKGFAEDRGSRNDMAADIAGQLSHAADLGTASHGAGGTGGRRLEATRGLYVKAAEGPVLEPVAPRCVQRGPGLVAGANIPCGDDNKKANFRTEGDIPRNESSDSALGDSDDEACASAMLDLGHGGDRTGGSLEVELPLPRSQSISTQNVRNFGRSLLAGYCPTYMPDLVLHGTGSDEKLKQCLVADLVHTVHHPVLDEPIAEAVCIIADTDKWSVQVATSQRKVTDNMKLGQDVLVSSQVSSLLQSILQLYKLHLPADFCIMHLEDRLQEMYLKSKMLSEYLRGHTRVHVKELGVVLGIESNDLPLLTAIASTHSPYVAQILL
UniProt O75140: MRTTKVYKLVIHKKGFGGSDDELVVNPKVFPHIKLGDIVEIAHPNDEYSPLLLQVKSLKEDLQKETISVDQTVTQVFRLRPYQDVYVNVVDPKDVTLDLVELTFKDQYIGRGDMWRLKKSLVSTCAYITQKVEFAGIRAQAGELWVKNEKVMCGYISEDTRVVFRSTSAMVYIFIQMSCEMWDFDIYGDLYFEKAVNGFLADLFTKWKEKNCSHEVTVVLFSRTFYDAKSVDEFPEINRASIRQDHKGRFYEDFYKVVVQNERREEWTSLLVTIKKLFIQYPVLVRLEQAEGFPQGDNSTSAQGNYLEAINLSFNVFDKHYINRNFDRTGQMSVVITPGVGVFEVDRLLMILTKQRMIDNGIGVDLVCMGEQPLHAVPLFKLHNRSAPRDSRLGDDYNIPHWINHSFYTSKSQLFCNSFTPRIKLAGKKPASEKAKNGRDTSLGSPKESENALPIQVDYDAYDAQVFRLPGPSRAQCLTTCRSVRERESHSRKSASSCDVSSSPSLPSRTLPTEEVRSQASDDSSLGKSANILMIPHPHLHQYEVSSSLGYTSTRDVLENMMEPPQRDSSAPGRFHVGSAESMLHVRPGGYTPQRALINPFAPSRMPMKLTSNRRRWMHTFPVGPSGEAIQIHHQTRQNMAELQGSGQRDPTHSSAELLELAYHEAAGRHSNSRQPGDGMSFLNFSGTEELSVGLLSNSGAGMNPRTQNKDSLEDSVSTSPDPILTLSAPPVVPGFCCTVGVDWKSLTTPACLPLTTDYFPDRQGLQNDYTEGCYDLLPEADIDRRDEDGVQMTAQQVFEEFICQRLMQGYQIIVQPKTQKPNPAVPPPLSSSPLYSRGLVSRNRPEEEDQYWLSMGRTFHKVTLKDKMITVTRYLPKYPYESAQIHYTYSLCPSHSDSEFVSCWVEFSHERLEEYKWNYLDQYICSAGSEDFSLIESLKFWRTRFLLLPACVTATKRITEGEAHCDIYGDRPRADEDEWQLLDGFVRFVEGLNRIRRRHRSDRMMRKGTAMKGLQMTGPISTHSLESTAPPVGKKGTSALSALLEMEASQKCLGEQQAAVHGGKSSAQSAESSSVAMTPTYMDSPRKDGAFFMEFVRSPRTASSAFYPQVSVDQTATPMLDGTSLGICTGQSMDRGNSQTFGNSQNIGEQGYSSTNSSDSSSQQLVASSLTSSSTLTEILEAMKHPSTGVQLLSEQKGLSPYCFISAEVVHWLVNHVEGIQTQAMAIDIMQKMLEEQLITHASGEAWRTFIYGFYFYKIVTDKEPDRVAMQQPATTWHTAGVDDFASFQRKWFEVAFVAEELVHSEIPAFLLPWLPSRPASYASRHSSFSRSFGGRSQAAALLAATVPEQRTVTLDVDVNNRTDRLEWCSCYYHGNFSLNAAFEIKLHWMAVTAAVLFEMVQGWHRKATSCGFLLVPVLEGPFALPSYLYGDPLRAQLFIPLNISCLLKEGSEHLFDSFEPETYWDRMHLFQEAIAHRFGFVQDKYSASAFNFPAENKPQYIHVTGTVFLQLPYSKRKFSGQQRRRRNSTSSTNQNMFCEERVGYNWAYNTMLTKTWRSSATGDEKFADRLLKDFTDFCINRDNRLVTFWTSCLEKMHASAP
UniProt Q9NQL2: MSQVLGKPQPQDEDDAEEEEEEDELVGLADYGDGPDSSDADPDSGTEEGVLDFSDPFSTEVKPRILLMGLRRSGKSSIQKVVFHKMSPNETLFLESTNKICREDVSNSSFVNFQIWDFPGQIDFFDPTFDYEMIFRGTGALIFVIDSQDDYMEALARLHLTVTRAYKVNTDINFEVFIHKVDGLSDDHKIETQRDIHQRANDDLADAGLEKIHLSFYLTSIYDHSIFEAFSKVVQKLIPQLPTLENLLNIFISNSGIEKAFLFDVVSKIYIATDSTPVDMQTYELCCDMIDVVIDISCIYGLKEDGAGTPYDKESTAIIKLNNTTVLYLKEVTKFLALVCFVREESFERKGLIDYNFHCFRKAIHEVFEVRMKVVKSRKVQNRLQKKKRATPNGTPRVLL
UniProt Q9HB90: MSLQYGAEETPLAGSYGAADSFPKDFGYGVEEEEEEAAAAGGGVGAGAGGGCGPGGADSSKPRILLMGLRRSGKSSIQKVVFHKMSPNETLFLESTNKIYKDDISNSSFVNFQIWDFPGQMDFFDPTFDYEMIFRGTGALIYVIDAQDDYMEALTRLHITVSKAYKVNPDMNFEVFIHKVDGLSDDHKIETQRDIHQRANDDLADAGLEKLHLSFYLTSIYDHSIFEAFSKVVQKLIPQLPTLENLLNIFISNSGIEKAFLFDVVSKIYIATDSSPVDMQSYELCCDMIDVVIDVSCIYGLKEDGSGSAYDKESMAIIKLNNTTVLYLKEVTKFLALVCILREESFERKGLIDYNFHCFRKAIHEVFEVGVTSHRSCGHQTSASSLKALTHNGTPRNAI
UniProt Q5VZM2: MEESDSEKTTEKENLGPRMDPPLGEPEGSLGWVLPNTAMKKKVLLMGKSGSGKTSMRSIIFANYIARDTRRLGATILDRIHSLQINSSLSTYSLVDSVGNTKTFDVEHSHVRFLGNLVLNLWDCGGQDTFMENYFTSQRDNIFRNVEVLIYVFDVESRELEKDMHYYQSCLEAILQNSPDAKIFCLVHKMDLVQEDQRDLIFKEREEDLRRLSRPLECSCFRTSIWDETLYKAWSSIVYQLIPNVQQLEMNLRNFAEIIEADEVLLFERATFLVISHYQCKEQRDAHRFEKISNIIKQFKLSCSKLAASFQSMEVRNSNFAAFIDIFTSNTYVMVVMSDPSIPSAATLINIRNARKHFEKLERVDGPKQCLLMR
GTP-locking mutant of RagB^long with D96A (Q5VZM2, form named): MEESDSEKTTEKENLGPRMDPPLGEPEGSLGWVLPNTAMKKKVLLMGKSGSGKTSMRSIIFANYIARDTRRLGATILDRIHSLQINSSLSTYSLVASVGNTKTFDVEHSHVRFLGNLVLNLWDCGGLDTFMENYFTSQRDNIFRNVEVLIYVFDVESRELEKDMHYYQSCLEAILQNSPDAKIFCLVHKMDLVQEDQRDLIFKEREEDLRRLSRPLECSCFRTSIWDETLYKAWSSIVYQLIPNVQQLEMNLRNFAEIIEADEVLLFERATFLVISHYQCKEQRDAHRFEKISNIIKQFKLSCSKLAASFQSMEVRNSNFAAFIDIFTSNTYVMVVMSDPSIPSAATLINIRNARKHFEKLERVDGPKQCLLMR
GTP-locking mutant of RagB^long with L94A (Q5VZM2, form named): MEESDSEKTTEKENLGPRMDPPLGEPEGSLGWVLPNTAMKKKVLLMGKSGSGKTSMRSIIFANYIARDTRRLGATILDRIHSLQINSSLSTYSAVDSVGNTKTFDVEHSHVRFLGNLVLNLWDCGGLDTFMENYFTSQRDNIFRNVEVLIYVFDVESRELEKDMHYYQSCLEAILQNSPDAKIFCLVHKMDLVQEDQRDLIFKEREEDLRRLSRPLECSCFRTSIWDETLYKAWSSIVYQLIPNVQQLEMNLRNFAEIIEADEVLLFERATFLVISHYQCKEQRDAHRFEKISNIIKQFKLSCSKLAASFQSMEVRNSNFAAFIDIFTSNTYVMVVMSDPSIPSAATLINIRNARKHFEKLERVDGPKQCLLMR
untagged RagB^short purified from bacteria (Q5VZM2-2, form named): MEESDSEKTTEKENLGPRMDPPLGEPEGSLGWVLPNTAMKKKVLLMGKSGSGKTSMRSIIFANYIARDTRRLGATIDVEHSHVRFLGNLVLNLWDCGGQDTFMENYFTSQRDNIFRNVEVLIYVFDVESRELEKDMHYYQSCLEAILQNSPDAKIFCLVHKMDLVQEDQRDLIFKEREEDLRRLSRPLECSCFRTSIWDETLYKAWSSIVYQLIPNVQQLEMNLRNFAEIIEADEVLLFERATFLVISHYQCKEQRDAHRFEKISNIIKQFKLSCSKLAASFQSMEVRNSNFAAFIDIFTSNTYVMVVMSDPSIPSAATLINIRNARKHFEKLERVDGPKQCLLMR
RagB^shortAQVHS (Q5VZM2-2, form named): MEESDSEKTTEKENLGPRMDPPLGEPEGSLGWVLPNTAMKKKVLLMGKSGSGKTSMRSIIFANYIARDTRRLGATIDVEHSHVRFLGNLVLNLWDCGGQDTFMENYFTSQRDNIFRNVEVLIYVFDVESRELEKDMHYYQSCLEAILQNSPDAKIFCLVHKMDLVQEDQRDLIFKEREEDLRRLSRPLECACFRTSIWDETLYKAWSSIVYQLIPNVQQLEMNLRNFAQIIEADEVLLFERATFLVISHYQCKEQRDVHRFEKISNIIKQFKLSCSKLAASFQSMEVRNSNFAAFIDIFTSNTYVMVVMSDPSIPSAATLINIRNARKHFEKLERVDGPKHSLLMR
RagB^shortΔN (Q5VZM2-2, form named): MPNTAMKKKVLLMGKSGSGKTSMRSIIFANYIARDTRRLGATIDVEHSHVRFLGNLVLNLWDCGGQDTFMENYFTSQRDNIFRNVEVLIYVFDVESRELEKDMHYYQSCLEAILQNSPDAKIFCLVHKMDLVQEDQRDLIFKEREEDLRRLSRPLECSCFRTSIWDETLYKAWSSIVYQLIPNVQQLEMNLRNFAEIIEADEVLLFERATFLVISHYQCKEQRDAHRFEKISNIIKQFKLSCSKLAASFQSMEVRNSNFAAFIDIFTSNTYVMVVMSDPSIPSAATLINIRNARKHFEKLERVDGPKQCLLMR
untagged RagB^shortT54N purified from HEK293T cells (Q5VZM2-2, form named): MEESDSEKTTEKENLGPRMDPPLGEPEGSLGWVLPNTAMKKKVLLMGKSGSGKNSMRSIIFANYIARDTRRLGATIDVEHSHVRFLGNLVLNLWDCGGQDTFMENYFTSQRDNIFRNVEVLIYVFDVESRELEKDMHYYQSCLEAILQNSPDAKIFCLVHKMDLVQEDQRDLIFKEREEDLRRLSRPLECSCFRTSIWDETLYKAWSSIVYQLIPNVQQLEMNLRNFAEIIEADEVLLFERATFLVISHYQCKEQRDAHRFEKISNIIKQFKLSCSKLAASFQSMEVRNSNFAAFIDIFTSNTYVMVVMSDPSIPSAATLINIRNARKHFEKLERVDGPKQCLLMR
UniProt Q7L523: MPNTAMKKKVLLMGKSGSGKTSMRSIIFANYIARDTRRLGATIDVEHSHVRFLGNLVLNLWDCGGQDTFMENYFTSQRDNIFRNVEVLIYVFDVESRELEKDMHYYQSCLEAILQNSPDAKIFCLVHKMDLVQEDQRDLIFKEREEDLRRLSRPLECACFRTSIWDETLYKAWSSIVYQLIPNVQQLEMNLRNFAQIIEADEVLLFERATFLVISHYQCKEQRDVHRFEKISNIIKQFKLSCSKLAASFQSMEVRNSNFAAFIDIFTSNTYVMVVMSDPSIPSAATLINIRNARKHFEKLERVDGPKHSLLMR

Experiment [6] has as its target FLAG-tagged RagC^S75N (human) (UniProt Q9HB90). Kind of experiment: co-purification; untagged RagA/B proteins co-transfected with FLAG-tagged RagC (S75N or Q120L) in RagABKO HEK293T; anti-FLAG beads, washes with 300 mM NaCl added, FLAG peptide elution; Coomassie staining.
In experiment [7] the target is purified GATOR1 complex containing DEPDC5^Y775A (UniProt O75140). Briefly: pull-down; 6 ug purified GATOR1 (DEPDC5^Y775A) held on anti-HA magnetic beads; 3 ug of each purified Rag heterodimer added overnight in CHAPS buffer (40 mM HEPES pH 7.4, 150 mM NaCl, 2 mM MgCl2, 0.1% CHAPS) with 200 uM GDP; washes with 500 mM NaCl; empty beads as background control; both purified.

Experiment [8] deals with FLAG-tagged RagC^Q120L (human) (UniProt Q9HB90). Kind of experiment: co-purification; untagged RagA/B proteins co-transfected with FLAG-tagged RagC (S75N or Q120L) in RagABKO HEK293T; anti-FLAG beads, washes with 300 mM NaCl added, FLAG peptide elution; Coomassie staining.
The target in experiment [9] is N-terminally His-tagged RagC^S75N (human) (UniProt Q9HB90). Kind of experiment: co-purification; untagged RagA or RagB^short co-expressed with N-terminally His-tagged RagC^S75N in E. coli; Ni-NTA, anion exchange and gel filtration; Coomassie staining. Background: SEC sorts molecules by how far they enter the pores of the column.

These are yes or no findings as the source states them, for the method shown. For some assays here: In cells and extracts the contact can be indirect. Some results given as binding are weak or reduced against the parent protein; the word gives no strength.

“GTP-locked RagB^long (Q127L) (from UniProt Q5VZM2 1-374)”: the binding entry is given as “binds” in experiment [1] and “binds weakly” in [2].
Consider “GTP-locking mutant of RagB^long with D96A (from UniProt Q5VZM2 1-374)”, for which the binding entry in [1] is given as “binds”.
With “GTP-locking mutant of RagB^long with L94A (from UniProt Q5VZM2 1-374)”, the binding result in experiment [1] is “binds”.
With RagA (from UniProt Q7L523 1-313), in experiment [3], the binding entry was “binds”.
Take RagB^long (from UniProt Q5VZM2 1-374): the values for the binding entry in [4], in [3] and in experiment [2] were “binds”, “binds” and “binds weakly”, respectively.
For “RagB^short (from UniProt Q5VZM2-2 1-346)”, the binding entry in experiment [4], in [3] and in experiment [2] was “binds” each time.
On to “RagB^shortAQVHS (from UniProt Q5VZM2-2 1-346)”, for which, in experiment [2], the binding entry is listed as “binds”.
“RagB^shortΔN (from UniProt Q5VZM2-2 1-346)”: the binding entry in experiment [2] is given as “binds”.
In the case of “non-GTP-bound RagB^long (T54N) (from UniProt Q5VZM2 1-374)”, the values for the binding result in [5] and in experiment [2] were “binds” and “no binding”, respectively.
Regarding “non-GTP-bound RagB^short (T54N) (from UniProt Q5VZM2-2 1-346)”, the binding result in experiment [5] and in experiment [1] was “binds” in each case.
As to “untagged RagB^long purified from HEK293T cells (from UniProt Q5VZM2 1-374)”, the binding result in experiment [6] and in [7] was “binds” each time.
For the substance “untagged RagB^longT54N purified from HEK293T cells (from UniProt Q5VZM2 1-374)”, in [8], the binding result is given as “binds”.
As to “untagged RagB^short purified from bacteria (from UniProt Q5VZM2-2 1-346)”, the binding result in experiment [9] and in experiment [7] was “binds” in each case.
For “untagged RagB^shortT54N purified from HEK293T cells (from UniProt Q5VZM2-2 1-346)”, in experiment [8], the binding result is listed as “binds”.
